Results as given in the supplement of paper PMC7826260.
The list shows a part of the results. Each Rep nickase domain was tested in vitro on the same pool of single strands (3 µM enzyme, 1 h, 37 °C); shown is the middle of each 90-letter strand. A value is the log2 ratio of uncut reads to the pool without enzyme; more negative means more cut, near 0 not cut, and no call is made. Shares of all reads are compared; values above 0 arise when much of the pool is cut.

Columns and labels:
Test in all cases: uncleaved DNA left, log2 of reads against the no-enzyme library (log2 ratio); higher = less cleavage (more negative = more Rep cleavage of the k-mer); sequences stand for … in CTCGTCCG…ACCGGAGA
[1] = system: T1, Rep nickase domain of Muscovy duck circovirus
T1 sequence (residues 1-111 of Rep, tag left off): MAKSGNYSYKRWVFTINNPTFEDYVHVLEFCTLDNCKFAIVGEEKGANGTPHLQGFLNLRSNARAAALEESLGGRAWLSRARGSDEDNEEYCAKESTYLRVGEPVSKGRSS
Protocol: (§1)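 A pool of 90-nt single-stranded DNAs with seven random bases just before the constant AC of the nick site (name = the seven bases) was cut by 3 µM recombinant His6-SUMO-tagged Rep nickase domain (300 nM DNA, 50 mM HEPES pH 8.0, 50 mM NaCl, 1 mM MnCl2, 1 h, 37 °C, three replicates). Uncut DNA was amplified and sequenced.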

[2] = system: T2, Rep nickase domain of banana bunchy top virus
T2 sequence (residues 1-94 of Rep, tag left off): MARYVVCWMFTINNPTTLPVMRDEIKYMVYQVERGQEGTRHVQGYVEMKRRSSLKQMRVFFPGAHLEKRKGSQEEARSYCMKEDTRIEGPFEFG
Protocol: as §1

[3] = system: T3, Rep nickase domain of cabbage leaf curl virus
T3 sequence (residues 1-116 of Rep, tag left off): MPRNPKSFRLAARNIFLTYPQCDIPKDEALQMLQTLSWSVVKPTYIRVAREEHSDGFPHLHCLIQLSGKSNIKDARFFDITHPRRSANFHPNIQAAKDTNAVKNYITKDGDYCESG
Protocol: as §1

[4] = system: T4, Rep nickase domain of chickpea chlorotic dwarf virus
T4 sequence (residues 1-124 of Rep, tag left off): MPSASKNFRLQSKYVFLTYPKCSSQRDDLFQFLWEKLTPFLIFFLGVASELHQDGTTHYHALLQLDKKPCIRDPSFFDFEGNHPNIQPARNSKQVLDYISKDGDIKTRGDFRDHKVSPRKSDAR
Protocol: as §1

[5] = system: T5, Rep nickase domain of faba bean necrotic yellows virus
T5 sequence (residues 1-98 of Rep, tag left off): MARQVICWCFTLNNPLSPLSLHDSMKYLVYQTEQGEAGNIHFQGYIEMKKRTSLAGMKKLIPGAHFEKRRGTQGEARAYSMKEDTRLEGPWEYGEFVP
Protocol: as §1

[6] = system: T6, Rep nickase domain of maize striate mosaic virus
T6 sequence (residues 1-117 of Rep, tag left off): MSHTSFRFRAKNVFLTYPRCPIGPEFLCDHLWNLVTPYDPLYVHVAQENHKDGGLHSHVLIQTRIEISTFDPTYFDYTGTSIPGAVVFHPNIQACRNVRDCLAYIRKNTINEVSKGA
Protocol: as §1

[7] = system: T7, Rep nickase domain of porcine circovirus 2
T7 sequence (residues 2-116 of Rep, tag left off): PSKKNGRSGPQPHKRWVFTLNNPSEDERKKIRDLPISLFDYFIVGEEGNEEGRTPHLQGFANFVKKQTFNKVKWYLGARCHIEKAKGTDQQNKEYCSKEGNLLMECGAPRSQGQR
Protocol: as §1

[8] = system: T8, Rep nickase domain of tomato golden mosaic virus
T8 sequence (residues 1-124 of Rep, tag left off): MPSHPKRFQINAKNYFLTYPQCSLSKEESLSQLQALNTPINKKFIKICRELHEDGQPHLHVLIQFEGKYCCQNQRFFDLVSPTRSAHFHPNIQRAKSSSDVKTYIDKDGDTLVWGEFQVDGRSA
Protocol: as §1

[9] = system: T9, Rep nickase domain of tomato yellow leaf curl virus
T9 sequence (residues 1-136 of Rep, tag left off): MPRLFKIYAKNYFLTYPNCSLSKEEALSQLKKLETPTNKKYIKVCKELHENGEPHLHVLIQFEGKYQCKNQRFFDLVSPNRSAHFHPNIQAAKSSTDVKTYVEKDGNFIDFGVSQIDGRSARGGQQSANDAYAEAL
Protocol: as §1

[10] = system: T10, Rep nickase domain of wheat dwarf virus
T10 sequence (residues 1-137 of Rep, tag left off): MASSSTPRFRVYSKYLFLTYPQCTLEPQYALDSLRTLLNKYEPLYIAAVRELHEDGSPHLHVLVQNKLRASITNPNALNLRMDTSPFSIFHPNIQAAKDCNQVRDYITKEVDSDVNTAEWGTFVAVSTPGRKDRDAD
Protocol: as §1

| Sequence | uncleaved DNA left (log2) [1] | uncleaved DNA left (log2) [2] | uncleaved DNA left (log2) [3] | uncleaved DNA left (log2) [4] | uncleaved DNA left (log2) [5] | uncleaved DNA left (log2) [6] | uncleaved DNA left (log2) [7] | uncleaved DNA left (log2) [8] | uncleaved DNA left (log2) [9] | uncleaved DNA left (log2) [10] |
| --- | --- | --- | --- | --- | --- | --- | --- | --- | --- | --- |
| AACTGAT | -0.339 | -0.141 | -0.0397 | 0.629 | 0.0865 | 1.32 | -3.75 | 0.0452 | -0.00372 | 0.174 |
| TACCCCA | -0.156 | 0.0131 | -0.238 | -2.41 | -0.0183 | -0.451 | -1.4 | -0.0548 | -0.0384 | -0.00752 |
| CAACATC | 0.0373 | 0.101 | -0.232 | -1.38 | 0.0405 | -0.734 | 0.1 | -0.0838 | 0.00502 | 0.0635 |
| CACCGCG | -0.0666 | -0.0255 | -0.893 | -0.093 | -0.0551 | -0.675 | 0.0529 | -0.0729 | -0.0879 | -0.253 |
| TGGGCTG | 0.0864 | 0.04 | 0.378 | 1.24 | 0.0258 | 1.78 | 0.11 | 0.209 | -0.012 | 0.102 |
| GACAAAT | -0.00389 | 0.083 | 0.447 | 0.461 | 0.173 | 1.13 | -0.427 | 0.1 | 0.111 | 0.221 |
| CATGTTA | -0.224 | -0.082 | -0.464 | -1.91 | -0.00459 | -1.03 | -0.364 | -0.122 | -0.0528 | -0.124 |
| CGTGCAC | -0.149 | -0.126 | -0.19 | 0.0877 | -0.22 | -0.409 | -0.0895 | -0.0711 | -0.0599 | -0.0285 |
| TCGGAAG | -0.118 | -0.0861 | -0.614 | -0.666 | -0.0725 | -1.06 | 0.0699 | -0.107 | -0.076 | -0.178 |
| TGAGAAC | 0.0768 | 0.0258 | 0.393 | 0.482 | 0.053 | 0.465 | 0.189 | -0.0167 | 0.0916 | 0.118 |
| AGGGAAT | -0.0402 | -0.0872 | 0.176 | 1.71 | -0.243 | 1.8 | 0.132 | -0.00474 | -0.169 | 0.0298 |
| TGAATAA | -0.0506 | -0.0332 | -0.164 | -0.036 | 0.035 | -0.345 | 0.0349 | -0.0379 | 0.0373 | -0.0249 |
| GGTCCTC | -0.0317 | 0.0103 | 0.397 | 0.989 | 0.0164 | 1.63 | -0.0112 | -0.0628 | 0.0341 | 0.0706 |
| GCAGCTG | 0.000444 | 0.121 | 0.243 | 1.16 | 0.109 | 1.41 | 0.162 | 0.0856 | -0.0494 | -0.0426 |
| GCTAATG | -0.0692 | -0.0227 | -0.312 | 0.0878 | -0.0414 | -0.59 | 0.069 | -0.0726 | -0.0997 | -0.0368 |
